# The full ranking holds about 33,000 sequences; the median of “E-score (-0.5 to 0.5)” is about -0.041, and the highest 2% start at about 0.37. The list shows a part of the results.
# Biological target: T1, Ecm22 (UniProt Q05958)
# T1 sequence: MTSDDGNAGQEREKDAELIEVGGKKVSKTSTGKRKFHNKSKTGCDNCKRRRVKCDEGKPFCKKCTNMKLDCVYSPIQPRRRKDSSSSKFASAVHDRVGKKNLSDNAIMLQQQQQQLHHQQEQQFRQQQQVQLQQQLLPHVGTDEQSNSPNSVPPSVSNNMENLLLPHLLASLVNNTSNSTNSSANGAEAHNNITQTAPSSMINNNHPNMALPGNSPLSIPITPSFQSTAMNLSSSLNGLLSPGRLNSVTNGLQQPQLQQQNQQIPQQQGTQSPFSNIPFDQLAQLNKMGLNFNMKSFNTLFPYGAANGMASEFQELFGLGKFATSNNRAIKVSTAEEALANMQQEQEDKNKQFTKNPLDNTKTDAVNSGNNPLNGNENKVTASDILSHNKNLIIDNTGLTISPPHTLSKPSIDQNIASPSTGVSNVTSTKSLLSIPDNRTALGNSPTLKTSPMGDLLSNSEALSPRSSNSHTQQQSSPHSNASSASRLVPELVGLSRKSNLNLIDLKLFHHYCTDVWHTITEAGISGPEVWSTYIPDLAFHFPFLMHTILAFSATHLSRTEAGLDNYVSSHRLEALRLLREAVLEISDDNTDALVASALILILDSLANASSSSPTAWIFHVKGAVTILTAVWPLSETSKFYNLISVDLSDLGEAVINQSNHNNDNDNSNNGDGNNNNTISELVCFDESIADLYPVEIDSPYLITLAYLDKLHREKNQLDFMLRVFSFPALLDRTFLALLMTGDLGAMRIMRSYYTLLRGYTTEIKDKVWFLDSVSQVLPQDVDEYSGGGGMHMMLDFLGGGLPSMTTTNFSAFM
# Experiment: PBM E-score (8-mer binding enrichment) (E-score (-0.5 to 0.5)); higher = stronger / more preferred TF binding; most listed sequences are background and not binding sites
# Conditions: protein concentration: 200 nM; construct: GST-full length
# Summary of the method: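 Yeast transcription factors carrying a GST tag, as full-length proteins or DNA-binding domains, were produced by PURExpress in vitro transcription/translation. About 100-200 nM protein was applied to universal all-10-mer Agilent arrays, double-stranded by primer extension on fresh or once-stripped slides. Bound protein was detected with fluorescent anti-GST, and scans were normalised with masliner. The Universal PBM Analysis Suite gave each ungapped eight-base word, pooled with its reverse complement, an E-score, a modified Wilcoxon-Mann-Whitney statistic.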
row,Sequence,PBM E-score
1,GGGAAAAC,0.0506
2,CAAGCTTA,-0.168
3,GACTGTCC,-0.0668
4,GCCGGCCC,-0.211
5,ATTGCAAA,-0.0382
6,CGTAAGTC,0.203
7,ACCATTCG,-0.0649
8,AATCTGAG,-0.116
9,CTTTAAAA,-0.0237
10,GAGTATAC,0.286
11,GTGCCCAA,-0.204
12,ACGGTCTG,0.0887
13,CAATACGA,0.403
14,GCCTTGCC,-0.135
15,CAGCTACA,-0.1
16,GACTAAGC,0.037
17,AGCTAGTC,-0.0169
18,CATCTCGC,0.269
19,AACTGTCA,-0.107
20,ACCTGCAG,-0.0186
21,AGTTGCGA,0.0752
22,CCCTCGAG,-0.326
23,AAGACGTC,0.00719
24,CCTATGAG,-0.296
25,AGAGCGAC,0.213

row,Sequence,PBM E-score
1,AGATGACG,0.0355
2,AAAAACGC,0.0905
3,GAGTTGCC,-0.00797
4,ACCCTTGA,-0.18
5,ACAGTGTA,0.0291
6,ACAATGCG,-0.011
7,TAAAGTGA,0.128
8,ACGGTAAA,0.16
9,ACTCCAAG,-0.208
10,GCGGTCAA,-0.136
11,CCGCGGTC,-0.0499
12,AAGATAAT,-0.0266
13,CATATTTA,0.0517
14,GCCCTAGC,-0.298
15,TCACGTCA,-0.108
16,GTCTAGCA,-0.0831
17,TTTGCAAA,0.164
18,AGTGGGGC,-0.234
19,GAAGTGCA,-0.079
20,AGCCGACT,0.00785
21,ACAAACAG,-0.0621
22,TCTGGGCA,-0.293
23,TGAAGACA,0.0768
24,GATAAGAA,0.0155
25,CCCGGCCA,-0.316

row,Sequence,PBM E-score
1,CGCGCCGA,0.123
2,AGCCGTAC,0.369
3,CGAGCATC,0.223
4,AGAACGAA,0.422
5,ACGTCCAC,-0.0555
6,AGCATAAA,-0.135
7,GAACCAAA,-0.116
8,ACCGAAAT,0.15
9,AGCCACCC,-0.139
10,AAAGGTAT,0.00139
11,AGCAGTCG,0.102
12,GCTGCGCC,-0.26
13,CAACTAAG,0.0643
14,AGCCCTTC,-0.206
15,TTACGTAA,0.164
16,CAAGTCTC,-0.105
17,CAGCTGCA,-0.385
18,AGTAGGAC,-0.254
19,TGCCACCA,-0.217
20,ACTGATAG,-0.156
21,ACGTTAAG,0.143
22,ACCTAAGC,-0.008
23,CGGATACC,0.0623
24,AGATCAGA,-0.14
25,CGTTCTCC,0.223

row,Sequence,PBM E-score
1,GGTGCTCA,-0.0745
2,AATCTAGA,-0.142
3,CGGACCGC,0.139
4,AGAAGCAC,-0.22
5,ATCTAACG,0.0414
6,ATCAGAGA,-0.127
7,AATCACTC,-0.0499
8,CATTCTAA,-0.019
9,ACGCACCA,0.0808
10,TACTATCA,0.121
11,ACCCGCGT,0.0617
12,GGGGCAGA,-0.0715
13,CATATACC,-0.0901
14,GTTTCGCA,0.204
15,GAAGTGTC,-0.055
16,ACTGAGTG,0.0538
17,AGGTTTCA,-0.106
18,ACTAAGCA,-0.146
19,CCTGCTGC,-0.19
20,AGAAGGAA,-0.0762
21,AGATAGCA,-0.224
22,AGCGTTAA,0.064
23,ACGTGTTA,0.113
24,GACTTTAC,0.145
25,CTAGGCGA,-0.00766

row,Sequence,PBM E-score
1,ATTGTTCA,0.01
2,ACGGGAAC,0.309
3,CGATAGTA,0.00622
4,CTACATGA,-0.136
5,CTGTTTGC,0.0586
6,TAGCGCGA,0.119
7,AGGCCACG,-0.0485
8,CGATTGAA,0.0465
9,CTGACGGC,-0.199
10,AATTACGC,0.019
11,ATCACAGA,-0.036
12,AGGCAAAA,-0.196
13,AGCCAGAT,-0.098
14,GGAACTAA,0.12
15,AACGGACC,0.287
16,ACCGAGAG,0.212
17,GGGCGTGA,-0.0475
18,CCGAAGAG,0.165
19,GCCGCTTA,0.128
20,GTCGACAA,-0.096
21,TATACAAA,0.106
22,CCAATGAG,-0.157
23,AGCTGTCG,0.224
24,ACAAGTTC,0.0124
25,ACCCCCAT,-0.186

row,Sequence,PBM E-score
1,ATATGTCC,0.0213
2,CCGCACTA,0.0774
3,CTTCCTAA,-0.0861
4,CCGAACCC,-0.0919
5,CGTGGGAG,-0.0456
6,TAATCCAA,-0.0649
7,CCCTCTCA,-0.297
8,ACTCGAAG,-0.196
9,CCCCAAAC,-0.0762
10,CCCGAGTA,0.0355
11,ACTCTGTC,0.0162
12,ATACTTTC,-0.00925
13,GCCACGAA,-0.0254
14,CTTGATAA,-0.116
15,GTCAGCAC,-0.103
16,CGCTCGCA,0.287
17,AAAACAGA,0.0336
18,TATAATCA,0.0314
19,CAGGACAC,-0.182
20,ATCAACGA,0.157
21,AACAACCG,0.184
22,AAATATAT,0.0892
23,TGCTGACA,-0.0974
24,CGCAAAAA,0.231
25,CAAGAATC,-0.0456

row,Sequence,PBM E-score
1,GCCAAGTA,-0.0261
2,CGCTACTA,0.131
3,AACACCCA,-0.125
4,ACATTGCG,-0.00816
5,ATTCGTGA,-0.00041
6,GCACGAAA,0.103
7,GCGCTGTA,-0.0662
8,GCAGCCGA,-0.0601
9,GAGTGCCA,-0.223
10,ATAGAGAT,0.0778
11,ATCATATC,0.143
12,GACAATGA,-0.154
13,GGTCTTCA,-0.13
14,CAAGCCGA,0.0727
15,AAATGTAT,0.147
16,CAGATGTA,-0.283
17,AACATTAT,-0.0277
18,AAGCACAG,-0.135
19,AACAGTCG,0.0423
20,AAAGCAAC,0.0163
21,GGGGATAA,-0.0248
22,ACTCCGGG,-0.0622
23,CCCTTCGC,0.0525
24,TCTAGCCA,-0.165
25,ACAGTATG,0.0575

row,Sequence,PBM E-score
1,CACTTCCA,-0.146
2,AGCGCCTC,-0.0741
3,AGTCCACA,-0.121
4,CGGGTTCA,0.0613
5,ACCCCACT,0.0855
6,CATATAAC,-0.00057
7,GGAATCGA,-0.146
8,AACATCAC,-0.116
9,TTACAGAA,-0.184
10,GTATCACA,0.246
11,ATACACAC,0.0416
12,GAACAAAC,0.142
13,AGTCGTGG,-0.233
14,TGCGTTAA,0.243
15,CAAAGGGA,-0.177
16,ACGGCGGA,-0.00123
17,AGCACGTC,-0.0967
18,AGTACCAA,-0.119
19,CCGGGCCC,-0.118
20,CACGGTTA,0.0472
21,CCATAGAA,-0.113
22,CAAATTCC,-0.0132
23,AGCCGATA,-0.109
24,GGTCTGAA,-0.0279
25,CTTGACTC,-0.0877

row,Sequence,PBM E-score
1,AAATGGCC,-0.213
2,ACAGACGG,-0.0713
3,GCTGTGGA,-0.15
4,ATGAGGCC,-0.121
5,ACTTACGG,0.207
6,CCCGTGAA,-0.0237
7,AGGCTTCC,-0.107
8,GAATCGCC,-0.024
9,TTGGTAAA,0.143
10,AGGAGGCA,-0.294
11,CGGATGTA,-0.0688
12,GTAGAAAA,0.101
13,TGATCTAA,0.0714
14,GACCGATC,0.0353
15,ATTGAATG,-0.0677
16,GTGTTGAA,-0.0883
17,AAGGTCCA,-0.0883
18,AGAAGCCC,-0.00607
19,GGGCCCCA,-0.31
